Source: the supplement of paper PMC12217912
The list shows a part of the results. Sequences were assembled here from the parent chain. Inactive controls read about 0.05.

B1: TEV protease; numbered along this chain (parent)
chain: MGESLFKGPRDYNPISSSICHLTNESDGHTTSLYGIGFGPFIITNKHLFRRNNGTLVVQSLHGVFKVKDTTTLQQHLVDGRDMIIIRMPKDFPPFPQKLKFREPQREERICLVTTNFQTKSMSSMVSDTSCTFPSGDGIFWKHWIQTKDGQCGSPLVSTRDGFIVGIHSASNFTNTNNYFTSVPKNFMELLTNQEAQQWVSGWRLNADSVLWGGHKVFMVKPEEPFQPVKEATQL

Variants of: B1
Assay: raw area under fraction-flipped curve 0-4 h after induction (AUC4h, not background-subtracted), DNA-recorder readout of cleavage of the substrate (dimensionless); higher = more cleavage of the substrate by the protease variant
Details: temperature: 34 °C; time window: 0-4 h after rhamnose induction
Procedure: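 In vivo DNA recorder in E. coli TOP10(DE3) ΔrhaA at 34 °C. Each TEVp single-site mutant (parent TEVp 0) is paired with a single-site variant of the 7-mer TEVs (canonical ENLYFQ|S). The substrate sits between flexible linkers in a Bxb1-sfGFP-TEVs-SsrA fusion, so cleavage stabilises Bxb1 and speeds flipping of a recombination array, read by NGS. The value is the raw area under the fraction-flipped curve over 0-4 h after rhamnose induction (AUC4h), with ≥20 reads per time point. It is not background-subtracted; inactive controls average about 0.047.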
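Note: Bxb1 expression induced with 0.2% (w/v) L-rhamnose at OD600 near 0.5, cultures sampled hourly, flipped fraction per protease–substrate barcode pair counted by paired-end Illumina sequencing.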

Variant | area with substrate ENLYCQS | area with substrate ENLYEQS | area with substrate ENLYGQS | area with substrate ENLYHQS | area with substrate ENLYIQS | area with substrate ENLYKQS | area with substrate ENLYLQS | area with substrate ENLYMQS | area with substrate ENLYNQS | area with substrate ENLYPQS | area with substrate ENLYRQS | area with substrate ENLYSQS | area with substrate ENLYDQS | area with substrate ENLYQQS | area with substrate ENLYVQS | area with substrate ENLYWQS | area with substrate ENLYYQS | area with substrate ENLYTQS
H215E | 0.063 | 0.0654 | 0.0538 | 0.0646 | 0.0576 | 0.0542 | 0.045 | 0.0562 | 0.0626 | 0.0743 | 0.0467 | 0.0504 |  |  |  |  |  | 
H143K | 0.0384 | 0.052 | 0.0613 | 0.0488 |  | 0.0535 |  | 0.0405 | 0.0603 |  | 0.0582 | 0.0508 | 0.0493 | 0.0616 | 0.0628 | 0.0616 | 0.0607 | 
L77D | 0.0753 | 0.065 | 0.0571 | 0.0588 | 0.0675 | 0.0622 | 0.0576 | 0.0645 | 0.0617 | 0.0557 | 0.0549 | 0.0624 | 0.0654 | 0.0569 | 0.0686 |  | 0.0632 | 
N193I | 0.087 |  | 0.0484 | 0.0802 | 0.116 | 0.0459 |  | 0.0802 | 0.116 | 0.0728 | 0.0668 | 0.0655 | 0.0787 |  |  | 0.0834 |  | 
I145Y | 0.0829 | 0.0626 | 0.0677 | 0.0581 | 0.0801 | 0.0476 |  | 0.0438 | 0.0608 | 0.0697 | 0.0434 | 0.0753 | 0.0626 | 0.0563 | 0.0876 | 0.0656 | 0.0513 | 
I139Y | 0.0914 |  | 0.0518 | 0.0633 | 0.0747 | 0.0745 | 0.0842 | 0.067 | 0.0643 | 0.0806 |  | 0.0714 | 0.0692 |  | 0.105 | 0.0794 |  | 0.0231
H47S | 0.0567 |  |  | 0.0598 | 0.0536 | 0.064 | 0.0464 |  | 0.061 | 0.0449 | 0.0655 | 0.0563 | 0.0578 |  | 0.0602 | 0.0555 |  | 
T114P | 0.023 | 0.0669 | 0.0704 | 0.0664 | 0.0858 |  |  | 0.0591 | 0.0625 | 0.0579 |  |  | 0.0507 | 0.0509 | 0.0738 | 0.0516 |  | 0.0565
S17N | 0.0807 | 0.0581 | 0.0663 | 0.072 | 0.105 | 0.0433 | 0.0825 |  | 0.0505 | 0.0563 | 0.0573 | 0.0864 | 0.055 |  | 0.101 | 0.0823 | 0.0654 | 
R102W | 0.0569 | 0.0379 | 0.0466 | 0.0674 |  | 0.0358 | 0.0255 |  | 0.0476 | 0.0439 | 0.0367 | 0.0382 | 0.0497 | 0.0463 | 0.0016 | 0.0468 | 0.0343 | 
S154P | 0.0356 | 0.0578 | 0.059 | 0.0602 | 0.0563 | 0.0585 |  |  | 0.0499 | 0.0668 | 0.0742 |  |  | 0.048 |  |  |  | 
S127Y | 0.0935 | 0.0635 |  | 0.0656 | 0.126 | 0.0603 |  |  | 0.067 | 0.0747 |  |  | 0.0466 |  | 0.148 | 0.0979 |  | 
N52R | 0.0727 |  |  | 0.0632 |  | 0.0563 |  |  | 0.0599 |  |  | 0.0463 | 0.0542 | 0.0454 | 0.0682 |  | 0.0479 | 
R204W | 0.0973 | 0.0681 | 0.0713 | 0.0713 | 0.168 | 0.057 | 0.116 | 0.0871 | 0.0718 | 0.0874 | 0.0579 | 0.0739 | 0.0336 | 0.0651 | 0.12 | 0.0724 | 0.0253 | 0.0804
Y179T | 0.0643 | 0.0668 | 0.0472 | 0.0601 |  | 0.0645 |  | 0.0552 | 0.0793 |  |  | 0.0623 | 0.0575 | 0.0806 | 0.0501 |  | 0.0662 | 
F226A | 0.0547 |  |  | 0.0785 |  |  |  | 0.0888 | 0.0489 | 0.0666 | 0.0659 |  | 0.0243 |  | 0.141 |  |  | 
I43C | 0.0921 | 0.0676 | 0.0548 | 0.0621 | 0.0905 |  | 0.0638 | 0.0707 | 0.0705 | 0.0656 |  | 0.0726 | 0.0575 | 0.0592 | 0.128 | 0.0618 | 0.0628 | 0.0715
G35P | 0.0313 | 0.015 |  |  | 0.0496 |  |  |  |  |  | 0.0453 |  |  | 0.047 |  | 0.04 |  | 
C20S | 0.0607 | 0.059 | 0.065 | 0.0556 | 0.0959 | 0.0512 | 0.0616 | 0.0655 | 0.0576 | 0.0631 |  | 0.0696 |  | 0.0568 | 0.0874 | 0.0871 | 0.0797 | 0.0696
C111I | 0.086 | 0.0605 |  | 0.0712 | 0.118 | 0.065 | 0.0658 | 0.0837 | 0.0762 | 0.0683 | 0.0578 | 0.0706 | 0.0701 | 0.0681 |  | 0.0769 |  | 0.0675
Q151L | 0.0606 | 0.0609 | 0.071 | 0.0615 | 0.119 | 0.0359 |  |  | 0.0791 | 0.0694 | 0.0695 | 0.0724 |  | 0.062 | 0.095 | 0.0715 | 0.0595 | 0.0666
H143W | 0.0072 | 0.061 | 0.0631 | 0.0595 | 0.0816 | 0.0331 |  | 0.0601 | 0.124 | 0.0505 |  | 0.0495 | 0.0517 |  | 0.0369 | 0.0527 | 0.0675 | 
K68L | 0.0768 | 0.0735 | 0.0577 | 0.0682 |  |  | 0.0829 | 0.0803 | 0.063 |  | 0.0517 | 0.0403 | 0.0686 |  | 0.107 | 0.0699 |  | 
V126R | 0.117 | 0.0645 | 0.0553 | 0.0774 | 0.132 |  |  | 0.103 | 0.0668 | 0.0892 |  | 0.0769 | 0.0627 | 0.0687 | 0.126 | 0.0823 | 0.0806 | 0.0811
R160H | 0.0574 |  |  | 0.0613 | 0.138 | 0.0503 |  |  | 0.0688 |  |  |  | 0.0564 |  | 0.13 | 0.08 |  | 0.07
T70A | 0.0757 | 0.0642 | 0.0645 | 0.0723 | 0.105 | 0.0667 |  |  | 0.0621 | 0.0594 |  | 0.0566 |  | 0.0633 | 0.0784 |  | 0.0661 | 0.0543
K221D | 0.0904 | 0.0553 | 0.0683 | 0.0606 |  | 0.0463 |  |  | 0.0704 |  | 0.0607 | 0.0955 | 0.0595 | 0.0583 | 0.103 |  | 0.0608 | 0.074
